The values below come from PubChem BioAssay AID1240 (Sanford-Burnham Center for Chemical Genomics, 2008).

Molecules are shown by their SMILES. Among all 50,000 compounds or so, about 800 (1.6%) showed an effect of 50% or more. The list shows a part of the results.

In this assay the target is Bcl-2-like protein 10 (Homo sapiens) (UniProt Q9HD36). The assay is described as follows: TR3 peptide-Bcl-B binding displacers, biochemical primary FP assay, phenotype converters (AID 1240).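 Further: 0% = Bcl-B with tracer peptide and DMSO and 100% = tracer peptide lacking Bcl-B.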 As to conditions: GST-Bcl-B / FITC-TR3 peptide fluorescence polarization; stronger effect = higher value; compound at 3.75 mg/L.
Chain of UniProt Q9HD36 (Q9HD36 whole entry, looked up): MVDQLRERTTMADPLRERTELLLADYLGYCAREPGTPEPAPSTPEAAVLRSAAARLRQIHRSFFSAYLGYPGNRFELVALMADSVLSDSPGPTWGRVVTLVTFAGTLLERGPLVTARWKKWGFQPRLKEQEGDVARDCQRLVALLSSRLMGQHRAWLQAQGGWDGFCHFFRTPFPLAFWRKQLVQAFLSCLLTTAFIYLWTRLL
Regarding `O=C(CSCc1cccc(Cl)c1)N/N=C/c1ccc(OCC(=O)N2CCCCC2)cc1`, the displacement was -5%. To `Cc1ccc(Cl)cc1NC(=O)c1ccccc1C(F)(F)F` belongs 9.3%; to `COc1ccc(NC(=O)C(=O)NCCN2CCN(S(=O)(=O)c3ccc4ccccc4c3)CC2)cc1`, 10.6%.

As to `CCOC(=O)COc1ccc(/C=N/N(C)c2ccccc2)cc1OC`, the displacement is 1.2%. Take `O=C(Cc1ccc(Cl)cc1)N1CCN(c2ccccn2)CC1`: the displacement was determined as 2.5%.

As for `O=C(NCC1(c2ccccc2)CCOCC1)c1ccccc1C(=O)c1ccccc1`, the displacement stood at 0.5%. In the case of `COc1ccc(C(=O)Oc2ccc(Cl)cc2)cc1S(=O)(=O)N1CCOCC1`, the displacement was -17.2%. For `Cc1cc(C=C2C(=O)NC(=O)NC2=O)c(C)n1-c1ccc(F)cc1`, the displacement is 4.7%. The same measure for `O=c1c([N+](=O)[O-])c(N2CCN(Cc3ccccc3)CC2)c2ccccc2n1-c1ccccc1`: -10.9%; for `Cc1ccc(-c2cc(C(=O)N/N=C/C=C/c3ccccc3)[nH]n2)cc1`: -8.8%. As for `CCOC(=O)C(CCOCCOc1cc(C)cc(C)c1C)C(=O)OCC`, the displacement was -6.3%. `COc1cccc(C2C3=C(NCCN=C3c3ccccc3)C(=O)N2c2ccccc2)c1` (centres undefined): the displacement is -0.7%.

With `O=C(N/N=C/C(Br)=C/c1ccccc1)c1cc(-c2ccco2)[nH]n1`, the displacement is -3.4%. The same measure for `CCc1ccccc1NC(=O)c1cc2cc(OC)ccc2oc1=O`: 15.4%; for `O=C(CC(Nc1cccc([N+](=O)[O-])c1)c1ccc(Cl)cc1)c1ccccc1` (centres undefined): -0.6%. The same measure for `C(=Nc1ccccc1-c1ccccc1N=Cc1c[nH]c2ccccc12)c1c[nH]c2ccccc12`: -11.6%; for `Nc1nnc(CC(=O)NCc2ccccc2)s1`: 6.6%. The same measure for `Cc1nc2ncccn2c1-c1csc(Nc2cccc(O)c2)n1`: 12.8%. In the case of `O=C(NCCc1c[nH]c2ccccc12)c1cccs1`, the displacement was determined as 11.9%. To `CCCC(=O)Nc1cccc(NC(=O)COc2cc(C)ccc2C(C)C)c1` belongs -2.3%; to `CCOC(=O)COc1ccc(/C=C2\C(=O)NC(=O)N(c3ccc(OC)cc3)C2=O)cc1OC`, 0.6%. On to `CCN(CC)c1ccc(NC(=O)CCN2C(=O)c3ccccc3C2=O)cc1`, for which the displacement turned out to be 14.3%.

In the case of `Cc1ccccc1N(CC(=O)N1CCc2ccccc2C1)S(C)(=O)=O`, the displacement came out at 9.6%. On to `S=C(NCCN1CCCCC1)NCc1ccccc1`, for which the displacement was determined as 3.1%. The same measure for `COC(=O)Cn1c(O)c(N=NC(=O)c2cc(C)[nH]n2)c2ccccc21`: -10.9%; for `Cc1onc(-c2ccccc2Cl)c1C(=O)Nc1ccc(Cl)cc1F`: 0.4%; for `O=C1CSC(c2ccc(Cl)cc2)N1` (centres undefined): 4.1%.

As to `CC(C)(CN1CCN(CC(C)(C)NS(=O)(=O)c2ccccc2)CC1)NS(=O)(=O)c1ccccc1`, the displacement was found to be 10.1%. The same measure for `O=[N+]([O-])c1ccc2nc3c([nH]c4ccccc43)c(Cl)c2c1`: -14.8%. To `COc1ccc(NC(=O)c2cccc(Cl)c2)cc1Cl` belongs 9.8%; to `COc1ccc(COC(=O)N/N=C(\C)CC(=O)Nc2c(C)cc(C)cc2C)cc1`, 3.8%; to `O=C(O)c1cc(-c2cccc([N+](=O)[O-])c2)nc2ccccc12`, 4.8%.

Turning to `CC1(C)CC(=O)C(=Cc2cn(-c3ccccc3)nc2-c2cccc([N+](=O)[O-])c2)C(=O)C1`, the displacement came to 6.1%.

With `O=C(Nc1ccccc1Oc1ccccc1)C(c1ccccc1)c1ccccc1`, the displacement worked out at 11.7%. Consider `Cc1ccc(C(=O)Oc2cccc3ccc(C)nc23)cc1`, for which the displacement is -7%. As for `O=C1C(=Cc2ccc(Oc3ccc(C(F)(F)F)cc3[N+](=O)[O-])c(Cl)c2)C(=O)c2ccccc21`, the displacement amounted to 2.4%. As for `CC1=C(C(=O)OCC(F)(F)F)C(c2ccccc2)NC(=O)N1` (centres undefined), the displacement was 7.2%. To `CCOC(=O)C(=O)Nc1cccc([N+](=O)[O-])c1C` belongs -1.5%; to `O=C(Nc1ccc(N2CCOCC2)cc1)c1ccccc1Br`, 6.6%; to `COc1ccc(-c2nc3cc(N)ccc3o2)cc1OC`, 2.7%.

Regarding `O=[N+]([O-])c1cccc(S(=O)(=O)N2CCN(c3ccccc3)CC2)c1`, the displacement stood at 1.8%.

As to `Cc1cccc(C2(c3cccc(C)c3)CC2C(=O)Nc2cc([N+](=O)[O-])ccc2O)c1` (centres undefined), the displacement was -10.6%.

In the case of `CCOC(=O)c1c(NC(=O)CCCOc2ccccc2)sc2c1CCC2`, the displacement was -3.9%. On to `CCOC(=O)c1c(NC(=O)c2ccccc2[N+](=O)[O-])sc2c1CCC(C)C2` (centres undefined), for which the displacement is -8.6%. The same measure for `OC1(C#Cc2ccccc2)CCN(Cc2ccccc2)CC1`: -12%; for `CC(C)NC(=O)C1C(C=C(Cl)Cl)C1(C)C` (centres undefined): 11.8%; for `COc1ccc(CN2CCN(S(=O)(=O)c3ccc(C)cc3)CC2)cc1OCc1ccccc1`: 12.1%. Regarding `CCOc1ccc(S(=O)(=O)Nc2ccccc2OC)cc1`, the displacement is -1.3%. To `COc1ccc(/C=C2\SC(=S)N(NC(=O)c3ccccc3Br)C2=O)cc1` belongs -11.6%. As to `Brc1ccc(-c2nnc(SCc3ccccc3)o2)cc1`, the displacement is -4.5%. To `O=C(CC(c1ccccc1)c1ccccc1)NCC1CCCO1` (centres undefined) belongs 6.3%; to `CCCN(CCC)C(=O)c1cccc(Cl)c1`, -6.9%. As for `O=C(Nc1cccc(OC(=O)c2cc(S(=O)(=O)N3CCCCC3)ccc2Cl)c1)c1ccco1`, the displacement worked out at 8.7%.

As to `COc1ccccc1NC(=O)CN1C(=O)c2ccccc2C1=O`, the displacement was 17.1%.

Consider `CCOC(=O)c1c(NC(=O)/C=C/c2ccco2)sc2c1CCCC2`, for which the displacement was determined as 10.1%. The same measure for `CN(C)c1ccc(/C=N/N=C2/NC(=O)C(Cc3ccc(Cl)cc3)S2)cc1` (centres undefined): -6.1%. On to `CN(C)c1nc(-c2ccccc2)c(N)c(-c2ccccc2)n1`, for which the displacement was 4%. `COCCOC(=O)c1c(C)oc2ccc(OC)cc12`: the displacement is 5.9%.

For the compound `COCCOC(=O)c1ccc(NC(=O)COc2ccc(Cl)cc2Cl)cc1`, the displacement is -2.3%. To `O=C1Nc2ccc(Br)cc2C(c2ccccc2Cl)=N/C1=C/c1ccoc1` belongs 8.2%; to `Cc1ccc(Nc2cc(-n3cccn3)ncn2)cc1`, 12%. To `COc1cccc(OCCOc2ccccc2)c1` belongs -2.3%. To `CS(=O)(=O)N(CC(=O)Nc1ccccc1)c1ccc(Oc2ccccc2)cc1` belongs 2.8%; to `CCOc1cc(C2NC(=S)NC(C)=C2C(=O)OC(C)C)ccc1O` (centres undefined), 8.3%; to `CCOc1ccccc1CN1CCN(Cc2cc(Br)ccc2O)CC1`, -13%. Regarding `CCCCN(CCCC)CC(O)COc1ccccc1C(=O)Nc1ccccc1` (centres undefined), the displacement is 8.2%. The same measure for `CC(=O)Nc1ccc(N2CCOCC2)cc1`: 8.8%; for `CC(=O)N(C1=C(Cl)C(=O)c2ccccc2C1=O)c1ccc(Br)cc1`: 22.1%; for `CC(C)(C#CCN1CCCC1)OCCC#N`: -18.2%.

Turning to `CC(C)Sc1nc2ccc(N3C(=O)C4CCCCC4C3=O)cc2s1` (centres undefined), the displacement is -3.5%. The same measure for `CCOc1ccc(N(CC(=O)N2CCN(c3ccccc3)CC2)S(C)(=O)=O)cc1`: 2.6%; for `Cc1ccc(/C=C/C(=O)NCCCN2CCOCC2)o1`: -3%. To `CCc1ccc(NC2=C(Cl)C(=O)N(c3ccc(Br)cc3)C2=O)cc1` belongs 7.4%; to `CCc1ccc(NC(=O)COc2ccc(C)cc2)cc1`, 10.2%; to `O=C1CC(CSc2nnc(-c3ccc(Cl)cc3)n2-c2ccccc2)=NN1`, -7.5%. Take `CCc1ccccc1NC(=O)c1c(NC(=O)Cc2ccccc2)sc(-c2ccccc2)c1C`: the displacement was found to be 8%.

In the case of `COc1ccc(C2(CNC(=O)C3COc4ccccc4O3)CCCC2)cc1OC` (centres undefined), the displacement worked out at 8.7%. Turning to `COC(=O)C1=C(C)N(c2ccc(OC)cc2)C(C)=C(C(=O)OC)C1c1ccc(OC)cc1`, the displacement is -5.4%. Consider `O=C(Nc1ccc(O)c(-c2nc3cc(Cl)ccc3o2)c1)c1ccccc1`, for which the displacement is -50.3%. Consider `CNC(=O)CN(c1cccc([N+](=O)[O-])c1)S(=O)(=O)c1ccccc1`, for which the displacement is -3.8%. On to `Cc1ccc(N2C(=O)NC(=O)/C(=C\c3cc(Cl)c(OCC(=O)O)c(Cl)c3)C2=O)cc1`, for which the displacement was -11.9%. To `COc1ccc(C(=O)CSc2ncn[nH]2)cc1` belongs 13.6%; to `Cc1ccc(/C(O)=C/c2nc3ccc([N+](=O)[O-])cc3oc2=O)o1`, -6.6%; to `CCOc1ccc(C(=O)NC(C)(C)C)cc1[N+](=O)[O-]`, 6.5%. As for `CCOC(=O)C1=C(O)/C(=C\c2ccc3c(c2)OCO3)SC1=Nc1ccccc1`, the displacement was -18.2%.

Turning to `CCc1ccc(-c2nc3cc(NC(=O)COc4ccc([N+](=O)[O-])cc4)ccc3o2)cc1`, the displacement was -6.4%. As for `COc1ccc(Cl)cc1N(CC(=O)NCc1ccncc1)S(=O)(=O)c1ccc(C)cc1`, the displacement was -4.1%. To `Cc1ccc(-c2csc(NC(=O)c3ccc([N+](=O)[O-])s3)n2)c(C)c1` belongs 12.6%; to `Cc1cccc(NCN2C(=O)C3CCCCC3C2=O)c1` (centres undefined), 9.8%. Turning to `N#CCC(=O)N/N=C/c1ccc(O)cc1O`, the displacement is 15.2%. The same measure for `CC(=O)n1cnc2c(c1=O)C1(CCCC1)Cc1ccccc1-2`: 6.2%; for `CC1(c2ccccc2)CC(C)(C)N(C(=O)CSc2nnc(N)s2)c2ccccc21` (centres undefined): 12.3%; for `CC(=O)Nc1cc([N+](=O)[O-])ccc1Nc1ccccc1`: 1.3%. For the compound `Cc1ccc(/C(O)=C2/C(=O)C(=O)N(CCCCCC(=O)O)C2c2ccc(F)cc2)cc1` (centres undefined), the displacement is -12.3%. `Cc1ccc(NCC(=O)N/N=C\c2ccccc2OCC(=O)O)cc1`: the displacement turned out to be 3.3%.

With `CN(C(=O)C(c1ccccc1)c1ccccc1)c1ccccc1`, the displacement is 11.8%. Regarding `Cc1ccccc1NC(=O)CSc1cc(Cl)ccc1Cl`, the displacement was 17.5%. As for `Cc1ccc(N2C(=O)NC(=O)/C(=C/c3ccc(-c4ccc(F)cc4)o3)C2=O)cc1`, the displacement came out at 40.5%. Take `COc1ccc(C=C2C(=O)N(c3ccc(C)cc3)C(=S)N(c3ccc(C)cc3)C2=O)cc1C(=O)O`: the displacement turned out to be 15%. With `O=C(c1ccccc1Br)N1CCCCC1CO` (centres undefined), the displacement was -8%. The same measure for `CN(C)CCC(=O)c1ccc2c(c1)OCO2`: -2.9%. The same measure for `CC(C)(C)c1csc(NC(=O)c2cccnc2)n1`: 6.5%. The same measure for `COc1ccccc1N1CCN(C(=O)Cc2ccc(Cl)cc2)CC1`: -3.1%; for `CC1=C(C(=O)OCc2ccccc2)C(c2cccc(Br)c2)C2=C(CC(C)(C)CC2=O)N1` (centres undefined): 5.2%; for `Clc1ccc(OCCOCCN2CCCCC2)c2ccccc12`: 7.3%. As to `O=C(O)CCC(=O)Nc1ccc(-c2nc3cc4ccccc4cc3[nH]2)cc1`, the displacement was -3.2%. To `C=CCOc1ccc(/C=C/C(=O)c2cccc(Br)c2)cc1` belongs 0.7%; to `Cc1nccn1CC(=O)N1c2ccccc2Sc2ccccc21`, 9.9%; to `O=[N+]([O-])c1ccc(N2CCN(S(=O)(=O)c3ccccc3)CC2)cc1Sc1cccc2cccnc12`, 9.7%.
